Out of some 310,000 compounds screened, about 2,200 (0.71%) showed an effect of 50% or more. The effect is printed as a negative number. The list shows a part of the results.
Biological target: human ether-à-go-go-related gene (hERG) potassium channel (human, UniProt Q12809)
Assay: primary screen, population patch clamp on CHO cells stably expressing hERG

human ether-à-go-go-related gene (hERG) potassium channel, sequence (Q12809 whole entry, looked up): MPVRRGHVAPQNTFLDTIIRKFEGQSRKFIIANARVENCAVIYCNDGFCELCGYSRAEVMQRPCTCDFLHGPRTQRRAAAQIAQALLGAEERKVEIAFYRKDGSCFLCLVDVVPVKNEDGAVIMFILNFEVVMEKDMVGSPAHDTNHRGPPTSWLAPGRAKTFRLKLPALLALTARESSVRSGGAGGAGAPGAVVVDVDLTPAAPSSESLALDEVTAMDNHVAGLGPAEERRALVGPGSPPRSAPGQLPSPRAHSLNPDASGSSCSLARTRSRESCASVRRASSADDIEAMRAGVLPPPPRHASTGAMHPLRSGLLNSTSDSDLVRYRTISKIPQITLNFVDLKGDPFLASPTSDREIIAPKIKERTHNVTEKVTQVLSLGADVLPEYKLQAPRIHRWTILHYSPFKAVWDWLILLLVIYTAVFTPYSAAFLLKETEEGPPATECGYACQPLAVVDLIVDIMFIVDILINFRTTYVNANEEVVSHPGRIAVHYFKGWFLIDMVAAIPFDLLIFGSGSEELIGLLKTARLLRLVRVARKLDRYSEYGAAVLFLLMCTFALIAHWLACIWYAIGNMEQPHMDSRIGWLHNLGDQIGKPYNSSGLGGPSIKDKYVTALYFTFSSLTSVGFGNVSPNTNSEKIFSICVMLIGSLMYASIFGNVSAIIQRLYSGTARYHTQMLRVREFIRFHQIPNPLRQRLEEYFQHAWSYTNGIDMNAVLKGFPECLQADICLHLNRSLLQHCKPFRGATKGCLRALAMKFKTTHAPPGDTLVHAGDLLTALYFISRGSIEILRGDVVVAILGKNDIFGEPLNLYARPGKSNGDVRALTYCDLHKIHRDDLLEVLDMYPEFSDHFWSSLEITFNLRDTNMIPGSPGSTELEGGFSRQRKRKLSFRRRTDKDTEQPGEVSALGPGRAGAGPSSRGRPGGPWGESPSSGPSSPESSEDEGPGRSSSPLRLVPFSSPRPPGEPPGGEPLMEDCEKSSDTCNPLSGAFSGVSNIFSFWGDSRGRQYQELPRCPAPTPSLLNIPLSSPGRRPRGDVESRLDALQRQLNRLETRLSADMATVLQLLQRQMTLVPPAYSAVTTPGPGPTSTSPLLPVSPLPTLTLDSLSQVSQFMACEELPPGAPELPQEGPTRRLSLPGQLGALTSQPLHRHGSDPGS

Row | Structure (SMILES) | hERG current change (%, negative = inhibition) at 1uM
1 | Cn1ccc(C(=O)N/N=C/c2c[nH]c3ccccc23)n1 | 23.6%
2 | O=C(NCCCNC(=O)c1cnccn1)c1ccc(Cl)cc1 | 4.3%
3 | O=C(CN(CC1CCCO1)C(=O)CNS(=O)(=O)c1ccc(Cl)cc1)NCc1ccco1 (stereo not drawn) | 11.5%
4 | COc1ccc(C(C)=O)cc1CSCc1cc(C(C)=O)ccc1OC | 14.6%
5 | COc1cc(NC(=O)C2CCCN(S(=O)(=O)c3ccc4c(c3)oc(=O)n4C)C2)cc(OC)c1 (stereo not drawn) | 3.86%
6 | CC(=O)Nc1c(-c2ccccc2Cl)c(=O)c2ccccc2n1C | 5.54%
7 | C[C@H](NC(=O)[C@@H]1CCC(=O)N1Cc1ccco1)c1ccccc1 | 15.8%
8 | O=C(Nc1ccc(S(=O)(=O)Nc2cnc3ccccc3n2)cc1)c1ccc(Br)o1 | -8.17%
9 | N#CCN(C(=O)COC(=O)C1CC2CCCC(C1)C2=O)c1ccccc1 (stereo not drawn) | 14.8%
10 | COc1cccc(C2C(C(=O)c3sc(C)nc3C)=C(O)C(=O)N2CCN2CCOCC2)c1OC (stereo not drawn) | 10.3%
11 | COCCCN1C(=O)c2ccc(C(=O)Nc3ccc(OC)cc3OC)cc2C1=O | 6.39%
12 | O=[N+]([O-])c1cccc(S(=O)(=O)NCCCN2CCOCC2)c1 | 6.54%
13 | COc1ccc(CCN2C(=O)CSC2=Nc2ccc(C(C)C)cc2)cc1OC | 13.9%
14 | CC(Nc1cc(N2CCN(C(=O)C(C)(C)C)CC2)ccc1[N+](=O)[O-])c1ccccc1 (stereo not drawn) | 4.91%
15 | O=C(NCc1ccco1)C12CN(Cc3ccccc3)CC1C(c1cccc([N+](=O)[O-])c1)=NO2 (stereo not drawn) | -24.8%
16 | CCCC[C@@H]1C[C@H]1[C@@H](NC(=O)c1cccs1)c1ccc(C(F)(F)F)cc1 | 11.3%
17 | CC(=O)Nc1nc(Cn2nnc(-c3ccc4c(c3)OCO4)n2)nc(N(C)C)n1 | -1.73%
18 | COc1ccc(C)cc1NC(=O)C(C)N1CCOCC1.Cl (stereo not drawn) | 13.7%
19 | N#CCCCn1c(O)c(N=NC(=O)C(O)c2ccccc2)c2ccccc21 (stereo not drawn) | 7.62%
20 | CCc1ccccc1N(CC(=O)O)S(C)(=O)=O | 2.48%
21 | Cc1ccc(NC(=S)NC(=O)Cc2ccccc2)c(O)c1 | 10.6%

Row | Structure (SMILES) | hERG current change (%, negative = inhibition) at 1uM
22 | CCCc1nnc(NC(=O)Cn2c(=O)oc3cc(Br)ccc32)s1 | 3.83%
23 | O=C(Nc1nc2ccccc2s1)c1ccc(OCC2CCCO2)cc1 (stereo not drawn) | 3.81%
24 | O=C(CSc1nc(=O)n(CCCN2CCOCC2)c2c1CCCC2)Nc1cccc([N+](=O)[O-])c1 | -39.5%
25 | CN(C(=O)COc1ccc2c(-c3ccccc3)cc(=O)oc2c1)C1CCS(=O)(=O)C1 (stereo not drawn) | 6.88%
26 | CCN1C(=O)[C@@H]2[C@@H](c3ccc(-c4ccc(OC)cc4)cc3)N3CCCC[C@@]3(C(=O)OC)[C@@H]2C1=O.O=C(O)C(F)(F)F | 4.79%
27 | CC(C)(C)NC(=O)C(Cc1ccccc1)NS(=O)(=O)c1ccc2c(c1)CCC(=O)N2 (stereo not drawn) | -2.91%
28 | O=C(CN1CCN(c2ccccc2O)CC1)Nc1ccc([N+](=O)[O-])cc1Br | 7.54%
29 | COc1ccc(-c2c([C@H]3[C@@H]4C=CCC[C@@]4(C)C(=O)N3Cc3ccccc3)ccc3ccccc23)cc1OC | 7.92%
30 | CCC(C)[C@H](NC(=O)C1(c2ccccc2)CCN(C(=O)OC(C)(C)C)CC1)C(=O)N[C@@H](C(=O)O)c1ccccc1 (stereo partly drawn) | 9.59%
31 | Cc1cc(C(=O)NCc2ccco2)cs1 | 13.5%
32 | Cc1cc(C)cc(NC(=S)N(Cc2ccc(Cl)cc2)Cc2ccc(C(=O)O)cc2)c1 | 6.22%
33 | CCOC(=O)C1CCCN(C(=O)N2CCOCC2)C1 (stereo not drawn) | 3.81%
34 | CCN(CC(=O)NC(C)(C)C)C(=O)c1ccc(Br)cc1 | 4.19%
35 | CC(=O)n1cc([C@H]2C=C(C(=O)NCc3ccccc3)O[C@@H](OCCCCO)C2)c2ccccc21 | -3.26%
36 | N#C/C(=C\c1ccc(-c2ccc([N+](=O)[O-])cc2Br)o1)C(=O)N1CCN(c2ccccc2)CC1 | 6.49%
37 | COc1ncnc(OC)c1S(=O)(=O)NCc1ccccc1 | 14.3%
38 | CC(C)CC(=O)N1CC(C)N(C(=O)CC(C)C)CC1C (stereo not drawn) | -2.69%
39 | Fc1ccccc1-c1csc(=Nc2cccnc2)n1CCCn1ccnc1 | -35.1%
40 | CCOc1ccccc1-n1c(CN2CCN(C(=O)c3ccco3)CC2)nc2ccccc2c1=O | 9.93%
41 | CC(NC(=O)C(C)(C)C)C(c1cccs1)N1CCN(Cc2ccccc2)CC1 (stereo not drawn) | 7.15%
42 | COC(=O)Cn1c(O)c(N=NC(=O)CNC(=O)c2ccncc2)c2ccccc21 | 13%

Reference: publication PMC4336329 (PLoS ONE, 2015)
